Measured values from the supplement of paper PMC10126150.
Values marked as one replicate rest on one cluster of the flow cell; about a third of the high ones do not repeat.

test system: ATP; experiment: switch fluorescence ratio, 500 uM ATP over buffer (Cy3 cluster intensity, sum of 5 cycles each) (fold (ratio)); higher = stronger signal-on switching upon ATP binding; sequences stand for … in TCGTCGGCAGCGTCAGATGTGTATAAGAGACAGTTTTTTTTTTTTTTTTTTTTTTTTT…TC; conditions: aptamer strand: ATP DNA aptamer (quencher-CACCTGGGGGAGTATTGCGGAGGAAGG + anchor), 100 nM annealed; ATP concentration: 500 uM; one replicate
How it was run: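 After annealing to 100 nM quencher-labelled ATP aptamer, Cy3-labelled switching-strand clusters on a modified Illumina MiSeq flow-cell were imaged in selection buffer. A second image followed after 15 min with 500 uM ATP at 22 °C, and five such buffer/ATP cycles were done, each separated by NaOH stripping and re-annealing. The fluorescence ratio, averaged per switch-domain sequence, is summed target-cycle over summed buffer-cycle Cy3 intensity per cluster, with clusters outside 100-1000 RFU excluded.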
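Also: ATP exposure 15 min at 22 °C before imaging.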

Sequence | switch fluorescence ratio
ATGTACCAGT | 1.04
ATTGCGGAGC | 1.02
CACTTGCTCG | 1.05
TATTCTGCG | 0.988
TTATTGGATG | 0.987
ACAAAGGAGG | 1.01
ACTAACCTCG | 1.13
AAAAGTAGCG | 1.11
CTCTTGAGTG | 0.986
CTTATTTTAT | 0.984
CAACGTTTAG | 1.02
AAGCGGTTGC | 1.02
ATACGCTCGA | 0.982
AAGAGAGAAA | 0.998
TCTTGGGCGA | 0.999
TACTTCTAT | 1.02
CTGGCGGGTC | 0.969
AAGAGAAATG | 0.975
TCGTCAGCCA | 1.13
CTGGGGCTAT | 1.06
ATTTATGCGA | 1
AACAAATATT | 0.957
AAATGAGTAT | 0.973

Sequence | switch fluorescence ratio
CAGTTTCGCT | 1.02
CAACGGCCGG | 0.995
AACTCGGGT | 1
CATCAGGGTA | 0.987
CGCGCTGCAG | 0.966
TTGTCAAAAA | 1.63
CCTTCTTAGA | 1.09
GATACAGTTT | 1.01
TTCTTAAAAT | 0.981
GCATGGGCTC | 1.05
CTGGAACTC | 0.971
TATCAGTGGC | 0.971
GGCCAGGACA | 1
GGCCCAGGAA | 1.19
TCCATTTGGT | 0.984
CGTTGCTATC | 1.17
CTGCAGTGCT | 1.99
CGGTAATATA | 1.03
TTGGCAAACC | 1.42
CATTTATATC | 0.996
TGCGTTCGGA | 1.01
ACAATGAGAC | 1.03
TAATTGACTC | 1.07

Sequence | switch fluorescence ratio
CTAGGGTCGG | 0.935
AGTGCAAATC | 1.05
CTATCAATT | 1.01
GACGGGCCCA | 0.993
TCTAACGTTT | 1.01
GGCATTGTTG | 1.01
GAACGGGTAA | 0.992
GGAGTTGTGG | 0.942
ATCCTTCCCG | 2.03
TGAAACCATT | 1
TTGATGAGAA | 0.99
GAACTGGAAT | 0.999
GGTGTACGAC | 1.02
AATAGAGCGT | 0.993
CCGTACGC | 4.58
GTCTTTTG | 1
GAGGATCTAA | 0.979
GTCATATTGG | 0.989
TCTTGGAAT | 0.994
ATAAATGTCT | 0.995
TTATCTAATT | 0.976
GCTGCGTGTT | 0.989
ATATGACTAA | 0.993

Sequence | switch fluorescence ratio
ACATGTGCAT | 0.99
TTGTACCTTA | 1.13
TCTTAACACG | 1.03
ATTTCGGGC | 0.98
CGGGGACTTA | 0.981
TTGATATCA | 0.958
CAGCCGCTCG | 1.23
AAACACGTCG | 1.02
AGACAATGTC | 1.02
AGTATGGGTC | 1.02
TCACCGGGTC | 1.09
GGCCGCGCAC | 1.44
TTGAACCAAA | 1
GGAATCAAA | 1.01
GGAGCTACTT | 1.59
CTGGTTG | 0.989
GGCCGTATGC | 0.979
CGGCGGAGA | 1.01
GAGGGGAAT | 1.05
GGATTCCGTC | 1.04
TCCTGTCTCA | 1.03
GTTTCAGGAT | 1.02
ATCGGGCG | 0.989

Sequence | switch fluorescence ratio
TGCTCTTGTT | 1.03
AGCGTCAGGA | 0.984
CGTTGTTAGG | 0.99
ATGAATCATA | 0.984
AAAAGGCAGT | 0.976
TATACTAATA | 0.998
ATCTTGGTAG | 0.987
AACAAAATTG | 1.07
TGACACCTAG | 1
ATCTGCTCGC | 1.07
TGAGAAAGAT | 0.942
CTATGAGAT | 0.954
GCTGTGTACA | 0.987
TTCATTTTC | 0.992
ATGGAGGCCT | 0.988
TCATGTGCGT | 1.01
AGTTGAGAAG | 0.982
ATTCACTAAC | 1.15
GGAACTACCG | 1.02
CTAGGGTTTT | 0.998
TTGGATGGAC | 1.05
TAACAAGCG | 0.985
GCCCGGTAGA | 0.991

Sequence | switch fluorescence ratio
CTGGTCTCTA | 0.991
GGGGCCGACG | 0.984
CTTTGACGTT | 0.969
AGATATTGCT | 0.997
ATCGCGGGCG | 1.06
GTTTCCTGAA | 0.985
GGTTTTGACG | 1.12
AGAAGCAGGC | 0.782
GCAGATCCGG | 0.971
TCACATCTTA | 1.07
AAGGCTCAGT | 1
GGTCTACGG | 1
GCGAAAGAGG | 1.01
GGAATAGTGA | 1.01
AACCAACCTG | 1
AAGGTTTAC | 0.991
TGCGCTCGGG | 1.05
GGGCTTTTGA | 0.984
AATCAATCTG | 0.976
GGCTTTAGGG | 1.03
ATAGTGCATT | 1
TGGGCTCCGA | 0.942
CTACTAGGGG | 1.07

Sequence | switch fluorescence ratio
GCTTTTTACT | 0.999
GCGGTTATTT | 0.966
AAAATCCAAG | 1.03
GTCGATGACA | 1
GAACTACTAA | 1.02
GGTTTGGCGC | 1.02
GAGACTCCCC | 3.59
GCAATGGGT | 1.11
GCGCGTAGAA | 0.994
CGGATATGGG | 0.977
CTAGAGCGCA | 1.03
AGCACGGATA | 1.05
CACCTAGGCA | 1.03
AGACAAGTT | 1.01
TATCATCGTT | 0.99
GCGCGGATAA | 1.06
GCGAAGTAGC | 1.07
CCGGGTAGTC | 1.05
ACATCCGCGG | 1.36
ACTTAGAATG | 1.08
